In patent US20060052454A1 (priority 2004, published 2006):

Columns and labels:
[1] = tested on: injuries due to physical traumas; test: Glycine treatment of participants with injuries due to physical traumas; type: in vivo, human
Description: Physical Injuries: The persons participating in the study who suffered from recurrent pains as a result of injuries due to physical traumas included amateur and professional sportsmen and others who had injured themselves several years before and had undergone one or more surgeries to correct their continuing problems.

[2] = tested on: skin problems; conditions: oral, after a few weeks
[3] = tested on: teeth and gum problems
Description: Teeth and gum: This study included 146 cases of teeth and gum problems (e.g., tooth pain, gums that bleed easily, a high tendency to have tooth decay).
Her dentist has established a 2-4 year program of orthodontics, using a succession of bracing devices.

| SMILES | Improvement with glucosamine treatments ([1]; participants' earlier use, before glycine) | Skin pigmentation conditions, including lentigo [2] | Skin smoothness and shine [2] | Skin wrinkles and sagging [2] | Treatment results at higher daily dosages ([1]; 15-20 grams daily, some instances) | Joint healing in young people (ages 17-27) with sports injuries ([1]; after one to two weeks) | Pain levels or frequency of occurrence after injuries ([1]; daily consumption of 10 grams) | Time to reported improvements ([1]; daily consumption of 10 grams) | Time to improvement of teeth and gum problems, some cases ([3]; 146 cases) | Orthodontic problems ([3]; about 30 participants) | Teeth and jaw structure, child with bracing program ([3]; after three months of glycine with bracing) | Time to total elimination of symptoms (bleeding gums) ([3]; men in their 50s, lifelong bleeding gums) |
| --- | --- | --- | --- | --- | --- | --- | --- | --- | --- | --- | --- | --- |
| N[C@H]1C(O)O[C@H](CO)[C@@H](O)[C@@H]1O (stereo partly drawn) [glucosamine, reference compound] | without any appreciable improvements |  |  |  |  |  |  |  |  |  |  |  |
| NCC(=O)O [glycine, Glycine] |  | improvement in skin pigmentation conditions | improvements in their skin's smoothness and shine | reductions in skin wrinkles and sagging | even better treatment results | their joints were sufficiently healed to allow many of them to resume playing their sports | rapid reductions in their pain levels or its frequency of occurrence | after only a single week of treatments | improvements were obtained after only two weeks of treatment | observed to be improved | their teeth and the jaw structure were normal | 6-12 months |
